Measurements from the supplement of paper PMC11876631.
± gives the standard deviation of the averaged measurements. Laboratory Escherichia coli strains with one amino-acid change in an essential protein, pooled on minimal glucose agar with carbenicillin or gentamicin at twice the control MIC (plus kanamycin and chloramphenicol for the plasmids), 48 h. Fold change of barcode share against drug-free plates; higher = less susceptible. Active = above 20 in both replicates (the paper's putatively resistant). '<' = one read or none on drug, '>' = one read or none on a drug-free plate. Shares are relative, so most strains fall below 1 when a few take over. Listed are strains with at least 15 reads on both drug-free plates, and hits; most hits rest on fewer reference reads. Replicate rank correlation about 0.5. Edits are read from barcodes.

B1: mukB V758A (protein)
chain: MIERGKFRSLTLINWNGFFARTFDLDELVTTLSGGNGAGKSTTMAAFVTALIPDLTLLHFRNTTEAGATSGSRDKGLHGKLKAGVCYSMLDTINSRHQRVVVGVRLQQVAGRDRKVDIKPFAIQGLPMSVQPTQLVTETLNERQARVLPLNELKDKLEAMEGVQFKQFNSITDYHSLMFDLGIIARRLRSASDRSKFYRLIEASLYGGISSAITRSLRDYLLPENSGVRKAFQDMEAALRENRMTLEAIRVTQSDRDLFKHLISEATNYVAADYMRHANERRVHLDKALEFRRELHTSRQQLAAEQYKHVDMARELAEHNGAEGDLEADYQAASDHLNLVQTALRQQEKIERYEADLDELQIRLEEQNEVVAEAIERQQENEARAEAAELEVDELKSQLADYQQALDVQQTRAIQYNQAIAALNRAKELCHLPDLTADCAAEWLETFQAKELEATEKMLSLEQKMSMAQTAHSQFEQAYQLVVAINGPLARNEAWDVARELLREGVDQRHLAEQVQPLRMRLSELEQRLREQQEAERLLADFCKRQGKNFDIDELEALHQELEARIASLSDSVSNAREERMALRQEQEQLQSRIQSLMQRAPVWLAAQNSLNQLSEQCGEEFTSSQDVTEYLQQLLEREREAIVERDEVGARKNAVDEEIERLSQPGGSEDQRLNALAERFGGVLLSEIYDDVSLEDAPYFSALYGPSRHAIVVPDLSQVTEHLEGLTDCPEDLYLIEGDPQSFDDSVFSVDELEKAAVVKIADRQWRYSRFPEVPLFGRAARESRIESLHAEREVLSERFATLSFDVQKTQRLHQAFSRFIGSHLAVAFESDPEAEIRQLNSRRVELERALSNHENDNQQQRIQFEQAKEGVTALNRILPRLNLLADDSLADRVDEIRERLDEAQEAARFVQQFGNQLAKLEPIVSVLQSDPEQFEQLKEDYAYSQQMQRDARQQAFALTEVVQRRAHFSYSDSAEMLSGNSDLNEKLRERLEQAEAERTRAREALRGHAAQLSQYNQVLASLKSSYDTKKELLNDLQRELQDIGVRADSGAEERARIRRDELHAQLSNNRSRRNQLEKALTFCEAEMDNLTRKLRKLERDYFEMREQVVTAKAGWCAVMRMVKDNGVERRLHRRELAYLSADDLRSMSDKALGALRLAVADNEHLRDVLRMSEDPKRPERKIQFFVAVYQHLRERIRQDIIRTDDPVEAIEQMEIELSRLTEELTSREQKLAISSRSVANIIRKTIQREQNRIRMLNQGLQNVSFGQVNSVRLNVNVRETHAMLLDVLSEQHEQHQDLFNSNRLTFSEALAKLYQRLNPQIDMGQRTPQTIGEELLDYRNYLEMEVEVNRGSDGWLRAESGALSTGEAIGTGMSILVMVVQSWEDESRRLRGKDISPCRLLFLDEAARLDARSIATLFELCERLQMQLIIAAPENISPEKGTTYKLVRKVFQNTEHVHVVGLRGFAPQLPETLPGTDEAPSQAS
B2: mukB V758P (protein)
chain: MIERGKFRSLTLINWNGFFARTFDLDELVTTLSGGNGAGKSTTMAAFVTALIPDLTLLHFRNTTEAGATSGSRDKGLHGKLKAGVCYSMLDTINSRHQRVVVGVRLQQVAGRDRKVDIKPFAIQGLPMSVQPTQLVTETLNERQARVLPLNELKDKLEAMEGVQFKQFNSITDYHSLMFDLGIIARRLRSASDRSKFYRLIEASLYGGISSAITRSLRDYLLPENSGVRKAFQDMEAALRENRMTLEAIRVTQSDRDLFKHLISEATNYVAADYMRHANERRVHLDKALEFRRELHTSRQQLAAEQYKHVDMARELAEHNGAEGDLEADYQAASDHLNLVQTALRQQEKIERYEADLDELQIRLEEQNEVVAEAIERQQENEARAEAAELEVDELKSQLADYQQALDVQQTRAIQYNQAIAALNRAKELCHLPDLTADCAAEWLETFQAKELEATEKMLSLEQKMSMAQTAHSQFEQAYQLVVAINGPLARNEAWDVARELLREGVDQRHLAEQVQPLRMRLSELEQRLREQQEAERLLADFCKRQGKNFDIDELEALHQELEARIASLSDSVSNAREERMALRQEQEQLQSRIQSLMQRAPVWLAAQNSLNQLSEQCGEEFTSSQDVTEYLQQLLEREREAIVERDEVGARKNAVDEEIERLSQPGGSEDQRLNALAERFGGVLLSEIYDDVSLEDAPYFSALYGPSRHAIVVPDLSQVTEHLEGLTDCPEDLYLIEGDPQSFDDSVFSVDELEKAPVVKIADRQWRYSRFPEVPLFGRAARESRIESLHAEREVLSERFATLSFDVQKTQRLHQAFSRFIGSHLAVAFESDPEAEIRQLNSRRVELERALSNHENDNQQQRIQFEQAKEGVTALNRILPRLNLLADDSLADRVDEIRERLDEAQEAARFVQQFGNQLAKLEPIVSVLQSDPEQFEQLKEDYAYSQQMQRDARQQAFALTEVVQRRAHFSYSDSAEMLSGNSDLNEKLRERLEQAEAERTRAREALRGHAAQLSQYNQVLASLKSSYDTKKELLNDLQRELQDIGVRADSGAEERARIRRDELHAQLSNNRSRRNQLEKALTFCEAEMDNLTRKLRKLERDYFEMREQVVTAKAGWCAVMRMVKDNGVERRLHRRELAYLSADDLRSMSDKALGALRLAVADNEHLRDVLRMSEDPKRPERKIQFFVAVYQHLRERIRQDIIRTDDPVEAIEQMEIELSRLTEELTSREQKLAISSRSVANIIRKTIQREQNRIRMLNQGLQNVSFGQVNSVRLNVNVRETHAMLLDVLSEQHEQHQDLFNSNRLTFSEALAKLYQRLNPQIDMGQRTPQTIGEELLDYRNYLEMEVEVNRGSDGWLRAESGALSTGEAIGTGMSILVMVVQSWEDESRRLRGKDISPCRLLFLDEAARLDARSIATLFELCERLQMQLIIAAPENISPEKGTTYKLVRKVFQNTEHVHVVGLRGFAPQLPETLPGTDEAPSQAS
B3: mukB V758W (protein)
chain: MIERGKFRSLTLINWNGFFARTFDLDELVTTLSGGNGAGKSTTMAAFVTALIPDLTLLHFRNTTEAGATSGSRDKGLHGKLKAGVCYSMLDTINSRHQRVVVGVRLQQVAGRDRKVDIKPFAIQGLPMSVQPTQLVTETLNERQARVLPLNELKDKLEAMEGVQFKQFNSITDYHSLMFDLGIIARRLRSASDRSKFYRLIEASLYGGISSAITRSLRDYLLPENSGVRKAFQDMEAALRENRMTLEAIRVTQSDRDLFKHLISEATNYVAADYMRHANERRVHLDKALEFRRELHTSRQQLAAEQYKHVDMARELAEHNGAEGDLEADYQAASDHLNLVQTALRQQEKIERYEADLDELQIRLEEQNEVVAEAIERQQENEARAEAAELEVDELKSQLADYQQALDVQQTRAIQYNQAIAALNRAKELCHLPDLTADCAAEWLETFQAKELEATEKMLSLEQKMSMAQTAHSQFEQAYQLVVAINGPLARNEAWDVARELLREGVDQRHLAEQVQPLRMRLSELEQRLREQQEAERLLADFCKRQGKNFDIDELEALHQELEARIASLSDSVSNAREERMALRQEQEQLQSRIQSLMQRAPVWLAAQNSLNQLSEQCGEEFTSSQDVTEYLQQLLEREREAIVERDEVGARKNAVDEEIERLSQPGGSEDQRLNALAERFGGVLLSEIYDDVSLEDAPYFSALYGPSRHAIVVPDLSQVTEHLEGLTDCPEDLYLIEGDPQSFDDSVFSVDELEKAWVVKIADRQWRYSRFPEVPLFGRAARESRIESLHAEREVLSERFATLSFDVQKTQRLHQAFSRFIGSHLAVAFESDPEAEIRQLNSRRVELERALSNHENDNQQQRIQFEQAKEGVTALNRILPRLNLLADDSLADRVDEIRERLDEAQEAARFVQQFGNQLAKLEPIVSVLQSDPEQFEQLKEDYAYSQQMQRDARQQAFALTEVVQRRAHFSYSDSAEMLSGNSDLNEKLRERLEQAEAERTRAREALRGHAAQLSQYNQVLASLKSSYDTKKELLNDLQRELQDIGVRADSGAEERARIRRDELHAQLSNNRSRRNQLEKALTFCEAEMDNLTRKLRKLERDYFEMREQVVTAKAGWCAVMRMVKDNGVERRLHRRELAYLSADDLRSMSDKALGALRLAVADNEHLRDVLRMSEDPKRPERKIQFFVAVYQHLRERIRQDIIRTDDPVEAIEQMEIELSRLTEELTSREQKLAISSRSVANIIRKTIQREQNRIRMLNQGLQNVSFGQVNSVRLNVNVRETHAMLLDVLSEQHEQHQDLFNSNRLTFSEALAKLYQRLNPQIDMGQRTPQTIGEELLDYRNYLEMEVEVNRGSDGWLRAESGALSTGEAIGTGMSILVMVVQSWEDESRRLRGKDISPCRLLFLDEAARLDARSIATLFELCERLQMQLIIAAPENISPEKGTTYKLVRKVFQNTEHVHVVGLRGFAPQLPETLPGTDEAPSQAS
B4: mukB V758D (protein)
chain: MIERGKFRSLTLINWNGFFARTFDLDELVTTLSGGNGAGKSTTMAAFVTALIPDLTLLHFRNTTEAGATSGSRDKGLHGKLKAGVCYSMLDTINSRHQRVVVGVRLQQVAGRDRKVDIKPFAIQGLPMSVQPTQLVTETLNERQARVLPLNELKDKLEAMEGVQFKQFNSITDYHSLMFDLGIIARRLRSASDRSKFYRLIEASLYGGISSAITRSLRDYLLPENSGVRKAFQDMEAALRENRMTLEAIRVTQSDRDLFKHLISEATNYVAADYMRHANERRVHLDKALEFRRELHTSRQQLAAEQYKHVDMARELAEHNGAEGDLEADYQAASDHLNLVQTALRQQEKIERYEADLDELQIRLEEQNEVVAEAIERQQENEARAEAAELEVDELKSQLADYQQALDVQQTRAIQYNQAIAALNRAKELCHLPDLTADCAAEWLETFQAKELEATEKMLSLEQKMSMAQTAHSQFEQAYQLVVAINGPLARNEAWDVARELLREGVDQRHLAEQVQPLRMRLSELEQRLREQQEAERLLADFCKRQGKNFDIDELEALHQELEARIASLSDSVSNAREERMALRQEQEQLQSRIQSLMQRAPVWLAAQNSLNQLSEQCGEEFTSSQDVTEYLQQLLEREREAIVERDEVGARKNAVDEEIERLSQPGGSEDQRLNALAERFGGVLLSEIYDDVSLEDAPYFSALYGPSRHAIVVPDLSQVTEHLEGLTDCPEDLYLIEGDPQSFDDSVFSVDELEKADVVKIADRQWRYSRFPEVPLFGRAARESRIESLHAEREVLSERFATLSFDVQKTQRLHQAFSRFIGSHLAVAFESDPEAEIRQLNSRRVELERALSNHENDNQQQRIQFEQAKEGVTALNRILPRLNLLADDSLADRVDEIRERLDEAQEAARFVQQFGNQLAKLEPIVSVLQSDPEQFEQLKEDYAYSQQMQRDARQQAFALTEVVQRRAHFSYSDSAEMLSGNSDLNEKLRERLEQAEAERTRAREALRGHAAQLSQYNQVLASLKSSYDTKKELLNDLQRELQDIGVRADSGAEERARIRRDELHAQLSNNRSRRNQLEKALTFCEAEMDNLTRKLRKLERDYFEMREQVVTAKAGWCAVMRMVKDNGVERRLHRRELAYLSADDLRSMSDKALGALRLAVADNEHLRDVLRMSEDPKRPERKIQFFVAVYQHLRERIRQDIIRTDDPVEAIEQMEIELSRLTEELTSREQKLAISSRSVANIIRKTIQREQNRIRMLNQGLQNVSFGQVNSVRLNVNVRETHAMLLDVLSEQHEQHQDLFNSNRLTFSEALAKLYQRLNPQIDMGQRTPQTIGEELLDYRNYLEMEVEVNRGSDGWLRAESGALSTGEAIGTGMSILVMVVQSWEDESRRLRGKDISPCRLLFLDEAARLDARSIATLFELCERLQMQLIIAAPENISPEKGTTYKLVRKVFQNTEHVHVVGLRGFAPQLPETLPGTDEAPSQAS
B5: asd M140Q (protein)
chain: MKNVGFIGWRGMVGSVLMQRMVEERDFDAIRPVFFSTSQLGQAAPSFGGTTGTLQDAFDLEALKALDIIVTCQGGDYTNEIYPKLRESGWQGYWIDAASSLRMKDDAIIILDPVNQDVITDGLNNGIRTFVGGNCTVSLQLMSLGGLFANDLVDWVSVATYQAASGGGARHMRELLTQMGHLYGHVADELATPSSAILDIERKVTTLTRSGELPVDNFGVPLAGSLIPWIDKQLDNGQSREEWKGQAETNKILNTSSVIPVDGLCVRVGALRCHSQAFTIKLKKDVSIPTVEELLAAHNPWAKVVPNDREITMRELTPAAVTGTLTTPVGRLRKLNMGPEFLSAFTVGDQLLWGAAEPLRRMLRQLA

These proteins were tested against Escherichia coli (laboratory strain) (assay: barcode share on antibiotic plates over drug-free plates; higher = less susceptible). Details: antibiotic: carbenicillin; 2× MIC (3.1 µg/mL).
Procedure: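 A pool of E. coli strains, each edited to carry one amino-acid change in an essential protein, was grown for 48 h on minimal glucose agar with or without antibiotic; strain barcodes were sequenced; mean of two replicates.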

Protein	fold change of barcode share
B1	0.452 ± 0.3
B2	0.326 ± 0.17
B3	0.331 ± 0.064
B4	0.229 ± 0.01
B5	0.306 ± 0.03

Same assay, conditions: antibiotic: gentamicin; 2× MIC (MIC 0.45 µg/mL)

Protein	fold change of barcode share
B1	< 0.0144
B2	0.0248 ± 0.0073
B3	< 0.0146
B4	0.416 ± 0.58
B5	0.00673 ± 0.0035
